{"source": "the RNAGym collection of RNA variant scans (doi:10.1073/pnas.2313332121)", "parents": {"B1": {"name": "TPR 5TU (parent)", "chain": "GGAUCUUCUCGAUCUAACAAAAAAGACAAAUCUGCCACAAAGCUUGAGAGCAUCUUCGGAUGCAGAGGCGGCAGCCUUCGGUGGCGCGAUAGCGCCAACGUUCUCAACUAUGACACGCAAAACGCGUGCUCCGUUGAAUGGAGUUUAUCAUG"}}, "note": "Variants at the background level are over-represented here."}
{"variants_of": "B1", "test": "polymerase ribozyme fitness, log enrichment relative to wild type (log ratio); higher = more active; in vitro selection for triplet polymerase activity", "how_it_was_run": "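In triplicate, a single round of in vitro selection was run on each mutant library, PCR-built and transcribed, covering one subunit of a heterodimeric triplet polymerase ribozyme. Frozen incubation at −7 °C followed annealing with a biotinylated primer, partner subunit and triplets, and extended constructs were then gel-excised, streptavidin-captured and taken through RT-PCR. Fitness is the logarithm of genotype enrichment over wild-type enrichment, from inverse-variance-weighted replicate averages of Illumina-sequenced inputs and outputs. […] only genotypes with ≥10 input reads and ≥1 read per output were kept.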"}
{"variant": "GGAUCUUCUCGAUCUAACAAAAAAGACAAAUCUGACACAAAGCUUGAGAGCAUCUUCGGAUGCAGAGGCGGCAGCCUUCGGUGGCGCGAUAGCGUCAACGUUCUCAACUAUGACACGCAAAACGCGAGCUCCGUUGAAUGGAGUUUAUCAUG", "note": "[C35A C95U U127A]", "polymerase ribozyme fitness (log ratio)": "≤ -4.2"}
{"variant": "GGAUCUUCUCGAUCUAACAAAAAAGACAAAUCUGACACAAAGCUUGAGAGCAUCUUCGGAUGCAGAGGCGGCAGCCUUCGGUGGCGGGAUAGCACCAACGUUCUCAACUAUGACACGCAAAACGCGUGCUCCGUUGAAUGGAGUUUAUCAUG", "note": "[C35A C87G G94A]", "polymerase ribozyme fitness (log ratio)": "≤ -4.2"}
{"variant": "GGAUCUUCUCGAUCUAACAAAAAAGACAAAUCUGACACAAACCUUGAGAGCAUCUUCGGAUGCAGAGGCGGCAGCCUUCGGUGUCGCGAUAGCGCCAACGUUCUCAACUAUGACAGGCAAAACGCGUGCUCCGUUGAAUGGAGUUUAUCAUG", "note": "[C35A G42C G84U C116G]", "polymerase ribozyme fitness (log ratio)": "≤ -4.2"}
{"variant": "GGAUCUUCUCGAUCUAACAAAAAAGACAAAUCUGACACAAAGCUUGAGAACAUCGUCGGAUGCAGAGGCGGCAGCCUUCGGUGGCGAGAUAGCGCCAACGUUCUUAACUAUGACACUCAAAUCGCGUGCUCCGUUGAAUGGAGUUUAUAAUG", "note": "[C35A G50A U55G C87A C105U G117U A122U C149A]", "polymerase ribozyme fitness (log ratio)": "≤ -4.2"}
{"variant": "GGAUCUUCUCGAUCUAACAAAAAAGACAAAUCUGACACAAAGCUUGAGAGCAUCUUCGGAUGCAGAGGCGGCAGCCUUCGGUGGCGAGAUAGCGCCAACUUUCUCAACUAUGACACGCAUAACGCGUGCUCCGUUGAAUGGAGUUUAUCAUG", "note": "[C35A C87A G100U A120U]", "polymerase ribozyme fitness (log ratio)": "≤ -4.2"}
{"variant": "GGAUCUUCUCGAUCUAACAAAAAAGACAAAUCUGACACAAAGCUUGAUAGCAUCUUCGGAUGCAGAGGCGGCAGCCUUCGGUGGCGCGAUAGCGCCAACGUUCUCAACUAUGACACGCAAAACGCGUGCUCCGUUGAAAGGAGUUUAUCAUG", "note": "[C35A G48U U139A]", "polymerase ribozyme fitness (log ratio)": "≤ -4.2"}
{"variant": "GGAUCUUCUCGAUCUAACAAAAAAGACAAAUCUGACACAAAACUUGAGAGCAUCUUCGGAUGCAGAGGCGGCAGCCUUCGGUGGCGCGAUUGCGCCAACGUUCUCAACUAUGACACGCAAAACGCGUGCUCCGUUGAAUGGAGUUUAUCAUG", "note": "[C35A G42A A91U]", "polymerase ribozyme fitness (log ratio)": -3.84}
{"variant": "GGAUCUUCUCGAUCUAACAAAAAAGACAAAUCUGACACAAAGCUUGAGAGCAUCUUCGGAUGCAGAGGCGGCAGCCUUCGGUGGCGCGAUAGCGCCAAUGUUCUCAACUAUGACACGCAAAACGCGUGCUCCGUUGAAAGGAGUUUAUCAUG", "note": "[C35A C99U U139A]", "polymerase ribozyme fitness (log ratio)": "≤ -4.2"}
{"variant": "GGAUCUUCUCGAUCUAACAAAAAAGACAAAUCUGACACAAAGCUUGAGAGCAUCUUCGGAUGCAGAGGCGGCAGCCUUCGGUGGCGCGAUAGCGCCAACGUUGUUGACUAUGACACGCAAAACGCGUGCUCCGUUGAAUGGAGGUUAUCAUG", "note": "[C35A C103G C105U A106G U144G]", "polymerase ribozyme fitness (log ratio)": "≤ -4.2"}
{"variant": "GGAUCUUCUCGAUCUAACAAAAAAGACAAAUCUGACACAAAGCUUGAGACCAUCUUCGGAUGCAGAGGCGGCAGCCUUCGGUGGCUCGAUAGCGCCAACGUUCUCAACUAUGACACGAAAAACGCGUGCUCCGUUGAAUGGAGUUUAUCAUG", "note": "[C35A G50C G86U C118A]", "polymerase ribozyme fitness (log ratio)": "≤ -4.2"}
{"variant": "GGAUCUUCUCGAUCUAACAAAAAAGACAAAUCUGACACAAAGCUUGAGACCAUCUUCGGAUGCAGAGGCGGCAGUCUUCGGUGGCGAGAUAGCGCCAACGUUCUUAUCUAUGACACGCAAAACGAGUGUUCCGUCGAAUGGAGUUUAUCAUG", "note": "[C35A G50C C75U C87A C105U A107U C125A C129U U135C]", "polymerase ribozyme fitness (log ratio)": "≤ -4.2"}
{"variant": "GGAUCUUCUCGAUCUAACAAAAAAGACAAAUCUGACACAAAGCUUAAGAGCAUCUUCGGAUGCAGAGGCGGCAGCCUUCGGUGGCGCGAUAGCGCCAACCUUCUCAACUAUGACACGCAAAACGCGUGCUCCCUUGAAUGGAGUUUAUCAUG", "note": "[C35A G46A G100C G133C]", "polymerase ribozyme fitness (log ratio)": "≤ -4.2"}
{"variant": "GGAUCUUCUCGAUCUAACAAAAAAGACAAAUCUGACACAAAGCUUGAGAGCAUCUUCGGAUGCAGAGGCGGCAGGCUUCGGUGGCGCGAUAGCGGCAUCGUUCUCAACUAUGGCACGCAAAACGCGGGCUCCGUUGACUGGAGUUUAUCAUG", "note": "[C35A C75G C95G A98U A113G U127G A138C]", "polymerase ribozyme fitness (log ratio)": "≤ -4.2"}
{"variant": "GGAUCUUCUCGAUCUAACAAAAAAGACAAAUCUGACACAAAGCUUGAGAGCAUCUUCGGAUGCAGAGGCGGCAGGCUUCAGGGGCGUGAUAGCGCCAACGUUCUCAACUAUGACACGCAAAGCGCGUGCUCCGUUGAAUGGAGUUUAUCAUA", "note": "[C35A C75G G80A U82G C87U A122G G152A]", "polymerase ribozyme fitness (log ratio)": "≤ -4.2"}
{"variant": "GGAUCUUCUCGAUCUAACAAAAAAGACAAAUCUGACACAAAGCUUGAGAGCAUCUUCGGAUGCAGAGGCGGCAGCCUUCGGUGGCGCGAUAGCGCUAACGUUCUCAACUAUGACACGCAAAACGCGUCCUCCGUUGAAUGGAGUUUAUCAUG", "note": "[C35A C96U G128C]", "polymerase ribozyme fitness (log ratio)": "≤ -4.2"}
{"variant": "GGAUCUUCUCGAUCUAACAAAAAAGACAAAUCUGACACAAAGCUUGAGAGCAUCUUCGGAUGCAGAGGCGGCAGCAUUCGGUGGCGCGAUAGCGCCAACGUUCUCAACUAUGACACGCAAAACGCGUGCUCCGUUGAAUGGAGUUUAUCAUG", "note": "[C35A C76A]", "polymerase ribozyme fitness (log ratio)": -4.08}
{"variant": "GGAUCUUCUCGAUCUAACAAAAAAGACAAAUCUGACACAAAGCUUGAGAGCAUCUUCGGAUGCAGAGGCGGCAGCCUUCGGUGGCGCGAUAGCGGCAACGUUCUCACCUAUGACACGCAAAACGCGUGCUCCGUUGAAUGGAGUGGAGCAUG", "note": "[C35A C95G A107C U145G U146G U148G]", "polymerase ribozyme fitness (log ratio)": "≤ -4.2"}
{"variant": "GGAUCUUCUCGAUCUAACAAAAAAGACAAAUCUGACACAAAGCUUGAGAGCAUCUUCGAAUGCAGAGGCGGCAGCCUUCGGUGGUGCGAUAGCGCCAACGUUCUCAACUAUGACACGCAAAACGCAUGCGCCGUUGAAUGGAGUUUAUCAUG", "note": "[C35A G59A C85U G126A U130G]", "polymerase ribozyme fitness (log ratio)": "≤ -4.2"}
{"variant": "GGAUCUUCUCGAUCUAACAAAAAAGACAAAUCUGACACAAAGCUUGAGAGCAUCUUCGGAUGCAGAGGCGGCAGCCUUCGGUGGCGCGAUAGCGCCAACGUUAUCAACUAUGACACGCAAAACGCGUGCUCCGUUGAAUGGAGUUUAUCAUG", "note": "[C35A C103A]", "polymerase ribozyme fitness (log ratio)": "≤ -4.2"}
